Experimental data from PubChem BioAssay (NCATS).
“And” between values parts separate entries of the source, which are not always exact repeats. Equal entries are not always repeated. The inconclusive results got no clear call from the source; some entries with a clear call stand among them for comparison. A potency beside an inconclusive call is a rough fit, not a confirmed value. The source made the active and inactive calls. Calls come from the whole dose curve; as a rule, active = well fitted curve in the direction sought with a large enough effect; inconclusive = small, poorly fitted or top-dose-only effect, or another doubt; inactive = no such curve, though single readings can be large; an effect the other way counts as inactive or inconclusive.

Legend:
[1] = qHTS of pediatric cancer cell lines to identify multiple opportunities for drug repurposing: Primary screen for Saos-2 cells (AID 1347097); settings: Saos-2 viability, CellTiter-Glo ATP luminescence, 48 h; activity change, negative = cytotoxic: at 46 µM (top of the series); note: nearly all actives have a fitted effect of over 40% in size
Procedure, shortened: (§1)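 Cells seeded at 500-1,000 cells/well in growth media, rested 5 hours at 37 degrees C, 5% CO2, then dosed; MIPE compounds at 11-point (from 0.78 nM) and NPC at 8-point (from 0.59 nM) final concentrations. Viability by CellTiter-Glo luminescence after 48 hours.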

[2] = qHTS of pediatric cancer cell lines to identify multiple opportunities for drug repurposing: Primary screen for SK-N-SH cells (AID 1347098); settings: SK-N-SH viability, CellTiter-Glo luminescence, 48 h; activity change, negative = cytotoxic: at 57 µM (top of the series); note: nearly all actives have a fitted effect of over 65% in size;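 for activity change, negative = cytotoxic: DMSO served as neutral control and bortezomib at 2.3 µM as positive control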
Procedure, shortened: (§2)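 Cells (500-1,000/well) rested 5 h, then received compounds for 48 h; metabolically active cells were measured by CellTiter-Glo luminescence. Final concentrations spanned up to 46 µM (MIPE, 11-point) or 0.59 nM-46 µM (NPC, 8-point) in primary screens, 11-point in follow-ups.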

[3] = qHTS of pediatric cancer cell lines to identify multiple opportunities for drug repurposing: Primary screen for LAN-5 cells (AID 1347100); settings: LAN-5 neuroblastoma viability, CellTiter-Glo luminescence, 48 h; activity change, negative = cytotoxic: at 46 µM (top of the series)
Procedure, shortened: as §2

[4] = qHTS of pediatric cancer cell lines to identify multiple opportunities for drug repurposing: Primary screen for Rh18 cells (AID 1347102); note: nearly all actives have a fitted effect of over 65% in size
Procedure, shortened: as §2

[5] = qHTS of pediatric cancer cell lines to identify multiple opportunities for drug repurposing: Primary screen for OHS-50 cells (AID 1347103); note: nearly all actives have a fitted effect of over 40% in size
Procedure, shortened: as §2

[6] = qHTS of pediatric cancer cell lines to identify multiple opportunities for drug repurposing: Primary screen for NB1643 cells (AID 1347099); note: nearly all actives have a fitted effect of over 50% in size
Procedure, shortened: as §1

[7] = qHTS of pediatric cancer cell lines to identify multiple opportunities for drug repurposing: Primary screen for RD cells (AID 1347104); note: nearly all actives have a fitted effect of over 55% in size
Procedure, shortened: as §1

[8] = qHTS of pediatric cancer cell lines to identify multiple opportunities for drug repurposing: Primary screen for BT-12 cells (AID 1347101); note: nearly all actives have a fitted effect of over 25% in size
Procedure, shortened: as §2
Potency is the fitted concentration of half-maximal effect; tags give direction and shape of the fitted curve.

| Compound | Potency [1] | Potency [2] | Potency [3] | Potency [4] | Potency [5] | Potency [6] | Potency [7] | Potency [8] |
| --- | --- | --- | --- | --- | --- | --- | --- | --- |
| Cc1nccn1CC1CCc2c(c3ccccc3n2C)C1=O (stereo not given) | inconclusive: 18.7 µM [cytotoxic, partial curve] and inconclusive: 2.99 µM [cytotoxic, partial curve, poor fit] | inconclusive: 38.3 µM [cytotoxic, single point] | inactive | – | – | – | – | – |
| O=c1oc2c(O)c(O)cc3c(=O)oc4c(O)c(O)cc1c4c23 | inactive | inactive | – | inactive | inconclusive: 13.7 µM [cytotoxic, partial curve] | – | – | – |
| CN[C@H](CC(C)C)C(=O)N[C@H]1C(=O)N[C@@H](CC(N)=O)C(=O)N[C@@H]2C(=O)N[C@H]3C(=O)N[C@H](C(=O)N[C@H](C(=O)O)c4cc(O)cc(O)c4-c4cc3ccc4O)[C@H](O)c3ccc(c(Cl)c3)Oc3cc2cc(c3O[C@@H]2O[C@H](CO)[C@@H](O)[C@H](O)[C@@H]2O[C@H]2C[C@](C)(N)[C@H](O)[C@H](C)O2)Oc2ccc(cc2Cl)[C@H]1O | inactive | inactive | – | – | inactive | inactive | inactive | – |
| CCCCC[C@H](O)C=C[C@H]1[C@H](O)CC(=O)[C@H]1CC=CCCCC(=O)O | inconclusive: 18.7 µM [cytotoxic, partial curve] | – | inconclusive: 37.2 µM [cytotoxic, single point] | – | – | inconclusive: 26.4 µM [cytotoxic, single point] | – | inconclusive: 19.3 µM [cytotoxic, partial curve] |
| CN1C(C(=O)Nc2ccccn2)=C(O)c2ccccc2S1(=O)=O | inconclusive: 16.6 µM [cytotoxic, partial curve] | inconclusive: 2.41 µM [cytotoxic, full curve] | – | – | – | – | inactive | inconclusive: 1.93 µM [cytotoxic, partial curve, poor fit] |
| COCCOc1nc(-c2ccc(Cl)c(Cl)c2)n(-c2ccc(NC(=O)CCl)cc2)n1 | inconclusive: 14.8 µM [cytotoxic, partial curve] | inconclusive: 13.6 µM [cytotoxic, partial curve] | – | inconclusive: 13.2 µM [cytotoxic, partial curve] | – | – | inconclusive: 14.8 µM [cytotoxic, partial curve] | active: 5.44 µM |
| CN(C)Cc1ccc(-c2nc3cccc4c3n2CCNC4=O)cc1 | inconclusive: 37.2 µM [cytotoxic, single point] | – | inconclusive: 33.2 µM [cytotoxic, single point] | – | inconclusive: 43.2 µM [cytotoxic, single point] | active: 23.5 µM | – | inconclusive: 43.2 µM [cytotoxic, single point] |
| CC(COc1ccccc1)N(CCCl)Cc1ccccc1 (stereo not given) | inconclusive: 11.9 µM [cytotoxic, partial curve] and inconclusive: 29.6 µM [cytotoxic, single point] | – | inconclusive: 8.33 µM [cytotoxic, full curve] | – | – | inconclusive: 26.4 µM [cytotoxic, single point] | – | inconclusive: 15.5 µM [cytotoxic, partial curve] |
| CNc1nc(Nc2ccc(C(=O)N3CCOCC3)cc2OC)ncc1Cl | inconclusive: 11.8 µM [cytotoxic, partial curve] | inconclusive: 17.1 µM [cytotoxic, partial curve] | inconclusive: 23.5 µM [cytotoxic, single point] | – | inconclusive: 21.7 µM [cytotoxic, partial curve] | – | – | inactive |
| CS(=O)(=O)OCCCCOS(C)(=O)=O | inconclusive: 26.6 µM [cytotoxic, single point] and inconclusive: 590 nM [cytotoxic, partial curve, poor fit] | inactive | inactive | – | inactive | – | – | – |
| CCC[C@@H](NC(=O)[C@@H]1[C@H]2CCC[C@@H]2CN1C(=O)[C@@H](NC(=O)[C@@H](NC(=O)c1cnccn1)C1CCCCC1)C(C)(C)C)C(=O)C(=O)NC1CC1 | inconclusive: 16.6 µM [cytotoxic, partial curve] | inconclusive: 42.9 µM [cytotoxic, single point] | inconclusive: 29.6 µM [cytotoxic, single point] | inconclusive: 37.2 µM [cytotoxic, partial curve, poor fit] | inconclusive: 30.6 µM [cytotoxic, single point] | – | inconclusive: 26.4 µM [cytotoxic, partial curve, poor fit] | inconclusive: 24.3 µM [cytotoxic, partial curve] |
